# From the supplement of paper PMC4967469
# Compound: CCn1cc(-c2ccnc3[nH]c(-c4cccc(CN(C)C)c4)cc23)c(-c2ccc(NC(=O)N(C)C)cc2)n1 [GSK1070916]
# Test: Viability of human cancer cell lines after 72 h of drug (GDSC screen)
# Details: top dose inferred
# Protocol: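 Human cancer cell lines in 384-well plates, medium with 10% serum, drug for 72 h over a 256-fold dose range (nine 2-fold or five 4-fold steps up to the top dose). Adherent lines were fixed and stained with the nucleic acid dye Syto60, suspension lines read with resazurin; signal relative to control wells, capped at 0 and 100%. One two-parameter sigmoid per drug and line, fitted in a mixed model over all curves with the slope shared within a line.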
Cell Line,AUC,IC50
"OVK-18 (ovary, adherent, top dose 2.56 µM)",0.985,> 2560 nM
"OVKATE (ovary, adherent, top dose 2.56 µM)",0.928,> 2560 nM
"OVMIU (ovary, adherent, top dose 2.56 µM)",0.931,> 2560 nM
"OVTOKO (ovary, adherent, top dose 2.56 µM)",0.933,> 2560 nM
"P12-ICHIKAWA (T-cell lymphoblastic leukaemia, suspension, top dose 2.56 µM)",0.014,< 10 nM
"P30-OHK (lymphoblastic leukaemia, suspension, top dose 2.56 µM)",0.019,< 10 nM
"P31-FUJ (acute myeloid leukaemia, suspension, top dose 2.56 µM)",0.984,> 2560 nM
"P32-ISH (Burkitt lymphoma, suspension, top dose 2.56 µM)",0.199,28.3 nM
"PA-1 (ovary, adherent, top dose 2.56 µM)",0.744,659 nM
"PA-TU-8902 (pancreas, adherent, top dose 2.56 µM)",0.969,> 2560 nM
"PA-TU-8988T (pancreas, adherent, top dose 2.56 µM)",0.982,> 2560 nM
"PANC-02-03 (pancreas, adherent, top dose 2.56 µM)",0.958,> 2560 nM
"PANC-03-27 (pancreas, adherent, top dose 2.56 µM)",0.946,> 2560 nM
"PANC-04-03 (pancreas, adherent, top dose 2.56 µM)",0.954,> 2560 nM
"PANC-08-13 (pancreas, adherent, top dose 2.56 µM)",0.935,> 2560 nM
"PANC-10-05 (pancreas, adherent, top dose 2.56 µM)",0.903,> 2560 nM
"PC-3 (prostate, adherent, top dose 2.56 µM)",0.927,> 2560 nM
"PC-3 [JPC-3] (lung adenocarcinoma, adherent, top dose 2.56 µM)",0.936,> 2560 nM
"PC-14 (lung adenocarcinoma, adherent, top dose 2.56 µM)",0.921,> 2560 nM
"PCI-4B (head and neck, adherent, top dose 2.56 µM)",0.908,> 2560 nM
"PCI-15A (head and neck, adherent, top dose 2.56 µM)",0.965,> 2560 nM

Cell Line,AUC,IC50
"PCI-30 (head and neck, adherent, top dose 2.56 µM)",0.984,> 2560 nM
"PCI-38 (head and neck, adherent, top dose 2.56 µM)",0.971,> 2560 nM
"PE/CA-PJ15 (head and neck, adherent, top dose 2.56 µM)",0.972,> 2560 nM
"PEO1 (ovary, adherent, top dose 2.56 µM)",0.943,> 2560 nM
"PF-382 (T-cell lymphoblastic leukaemia, suspension, top dose 2.56 µM)",0.083,< 10 nM
"PFSK-1 (medulloblastoma, adherent, top dose 2.56 µM)",0.962,> 2560 nM
"PL4 (pancreas, adherent, top dose 2.56 µM)",0.986,> 2560 nM
"PL18 (pancreas, adherent, top dose 2.56 µM)",0.988,> 2560 nM
"PL-21 (acute myeloid leukaemia, suspension, top dose 2.56 µM)",0.776,1190 nM
"PSN1 (pancreas, adherent, top dose 2.56 µM)",0.88,1940 nM
"QGP-1 (pancreas, adherent, top dose 2.56 µM)",0.854,> 2560 nM
"QIMR-WIL (acute myeloid leukaemia, suspension, top dose 2.56 µM)",0.377,74 nM
"RC-K8 (B-cell lymphoma, suspension, top dose 2.56 µM)",0.993,> 2560 nM
"RCC10RGB (kidney, adherent, top dose 10.24 µM)",0.823,> 10200 nM
"RCC-AB (kidney, adherent, top dose 2.56 µM)",0.902,> 2560 nM
"RCC-ER (kidney, adherent, top dose 2.56 µM)",0.984,> 2560 nM
"RCC-FG2 (kidney, adherent, top dose 2.56 µM)",0.961,> 2560 nM
"RCC-JF (kidney, adherent, top dose 2.56 µM)",0.955,> 2560 nM
"RCC-JW (kidney, adherent, top dose 2.56 µM)",0.933,> 2560 nM
"RCC-MF (kidney, adherent, top dose 2.56 µM)",0.898,> 2560 nM

# Lines with a small IC50 respond at low doses; where the fit passes the top or lowest dose, that dose stands as a limit. AUC is the area under the same curve over the 256-fold range up to the top dose, as a fraction; values near 1 show little effect. An inferred top dose comes from the curve model; the source does not state it.
